Assay results reported in patent US20260250378A1 (AGENCY FOR SCIENCE TECHNOLOGY AND RESEARCH, published 2026).

Key:
MsCANX_His = target: T1, MsCANX_His (mouse, UniProt P35564); test: BLI, IgG1 on AHC biosensor, MsCANX_His 200-0.39 nM
T1 construct: recombinant, C-terminal polyhistidine tag; also called recombinant mouse CANX protein with a polyhistidine tag at the C-terminus
T1 sequence (antigen, looked up): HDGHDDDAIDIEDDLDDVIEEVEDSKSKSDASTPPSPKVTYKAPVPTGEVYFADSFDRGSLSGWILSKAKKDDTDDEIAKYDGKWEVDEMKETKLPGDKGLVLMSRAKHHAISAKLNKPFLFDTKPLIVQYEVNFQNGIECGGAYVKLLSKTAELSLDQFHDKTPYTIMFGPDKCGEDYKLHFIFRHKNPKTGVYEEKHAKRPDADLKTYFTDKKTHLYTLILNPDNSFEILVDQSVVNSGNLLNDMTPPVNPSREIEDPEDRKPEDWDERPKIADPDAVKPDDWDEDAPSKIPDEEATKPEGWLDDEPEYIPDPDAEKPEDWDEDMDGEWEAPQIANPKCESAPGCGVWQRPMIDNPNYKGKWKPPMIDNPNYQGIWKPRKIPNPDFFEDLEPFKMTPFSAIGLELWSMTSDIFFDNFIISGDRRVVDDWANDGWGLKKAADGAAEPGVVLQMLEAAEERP
Protocol: The binding affinity of the 15 antibody clones to recombinant mouse CANX protein with a polyhistidine tag at the C-terminus (MsCANX_His) was measured by Bio-Layer Interferometry. The 15 antibody clones were loaded and captured by the anti-human IgG Fc capture (AHC) biosensors (FIG. 6). The biosensors were dipped into a range of MsCANX_His protein concentrations (from 200 nM to 0.39 nM, in 2-fold dilutions), the kinetics of the association and dissociation were then recorded.

[1] = target: T2, recombinant human CNX protein with a polyhistidine tag at the C-terminus (HuCANX_His) (human, UniProt P27824 21-481, limits assumed); test: ELISA, IgG1 coated 10 nM, His-tagged antigen titrated (EC50 is of the antigen), anti-His-HRP; plateau only about 0.7
T2 construct: also called HuCANX with a His tag
T2 sequence (looked up): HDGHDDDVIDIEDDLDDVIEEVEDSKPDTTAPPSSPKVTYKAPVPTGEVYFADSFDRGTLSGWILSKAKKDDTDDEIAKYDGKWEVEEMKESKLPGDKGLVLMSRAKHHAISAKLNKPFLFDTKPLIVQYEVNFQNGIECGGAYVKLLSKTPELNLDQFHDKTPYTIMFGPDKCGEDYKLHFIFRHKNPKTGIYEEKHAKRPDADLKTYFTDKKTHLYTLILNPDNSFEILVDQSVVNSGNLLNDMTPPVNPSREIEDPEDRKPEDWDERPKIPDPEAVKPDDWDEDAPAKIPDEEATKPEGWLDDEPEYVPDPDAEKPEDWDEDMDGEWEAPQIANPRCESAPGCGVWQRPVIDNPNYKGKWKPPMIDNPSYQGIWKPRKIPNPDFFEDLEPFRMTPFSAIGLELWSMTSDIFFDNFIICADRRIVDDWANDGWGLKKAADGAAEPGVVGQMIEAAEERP
Protocol: The 15 antibody clones were tested using ELISA against biotinylated recombinant HuCANX_hFc protein to assess binding avidity for the target, with an irrelevant IgG1 used as a negative control antibody. In brief, the 15 antibody clones were coated at 2 μg/ml onto the 96-well ELISA plates overnight at 4° C. After blocking with casein for 2 hours, the biotinylated antigen was added at different concentrations (3 times serial dilutions) and incubated for 1 hour. The wells were then washed with PBST and detected by HRP conjugated streptavidin. […] antibody clones were also tested in ELISA against recombinant HuCANX_His protein to assess binding affinity for the target, with an irrelevant IgG1 used as a negative control antibody. In brief, the 15 antibody clones were coated at 10 nM onto the 96-well ELISA plates overnight at 4° C. After blocking with casein for 2 hours, the antigen was added at different concentrations (3 times serial dilutions) and incubated for 1 hour. The wells were then washed with PBST and detected by HRP conjugated anti-His tag antibody.

B1: 3F8 IgG1 (antibody)
heavy: EVQLVQSGAEVKKPGASVKVSCKASGYTFTSYAMHWVRQAPGQRLEWMGWINAGNGNTKYSQKFQGRVTITRDTSASTAYMELSSLRSEDTAVYYCARVLHVLRYFDWPGAFDIWGQGTTVTVSS[left out - human IgG1 constant region]
light: QSVLTQPPSASGTPGQRVTISCSGSSSNIGTNYVYWYQQLPGTAPKLLIYINDQRPSGVPDRFSGSKSGTSASLALSGLRSEDEADYYCAAWDDSLSGLVFGGGTKLTVLGQPKAAPSVTLFPPSSEELQANKATLVCLISDFYPGAVTVAWKADSSPVKAGVETTTPSKQSNNKYAASSYLSLTPEQWKSHKSYSCQVTHEGSTVEKTVAPAECS
Kd (MsCANX_His): 188 nM | koff (MsCANX_His): 0.0465 s⁻¹ | kon (MsCANX_His): 247000 M⁻¹ s⁻¹ | EC50 [1]: 22.5 nM
